Source: the supplement of paper PMC7826260
The list shows a part of the results. The data describe in vitro nicking of single-stranded DNA by Rep domains (1 h at 37 °C, 3 µM enzyme); the outer parts of the 90-letter strands are left off. Numbers give uncut DNA relative to the enzyme-free pool, as log2; the lower, the more was cut; hits are not called. The scaling is to total reads, so uncut sequences can rise above 0 when many others are cut.

Assays:
Test in all cases: uncleaved DNA left, log2 of reads against the no-enzyme library (log2 ratio); higher = less cleavage (more negative = more Rep cleavage of the k-mer); sequences stand for … in CTCGTCCG…ACCGGAGA
[1] = tested on: T1, Rep nickase domain of Muscovy duck circovirus
T1 sequence (residues 1-111, tag not shown): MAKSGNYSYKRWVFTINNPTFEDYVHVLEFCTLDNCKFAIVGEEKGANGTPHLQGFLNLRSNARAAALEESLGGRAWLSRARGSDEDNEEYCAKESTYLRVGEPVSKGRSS
Description: (§1)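 A pool of 90-nt single-stranded DNAs with seven random bases just before the constant AC of the nick site (name = the seven bases) was cut by 3 µM recombinant His6-SUMO-tagged Rep nickase domain (300 nM DNA, 50 mM HEPES pH 8.0, 50 mM NaCl, 1 mM MnCl2, 1 h, 37 °C, three replicates). Uncut DNA was amplified and sequenced.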

[2] = tested on: T2, Rep nickase domain of banana bunchy top virus
T2 sequence (residues 1-94, tag not shown): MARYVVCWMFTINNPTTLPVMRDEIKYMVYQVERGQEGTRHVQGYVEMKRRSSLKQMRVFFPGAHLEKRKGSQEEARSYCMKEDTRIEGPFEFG
Description: as §1

[3] = tested on: T3, Rep nickase domain of cabbage leaf curl virus
T3 sequence (residues 1-116, tag not shown): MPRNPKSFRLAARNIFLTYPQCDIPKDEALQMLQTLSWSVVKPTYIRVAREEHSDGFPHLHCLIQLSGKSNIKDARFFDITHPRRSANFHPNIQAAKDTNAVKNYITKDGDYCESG
Description: as §1

[4] = tested on: T4, Rep nickase domain of chickpea chlorotic dwarf virus
T4 sequence (residues 1-124, tag not shown): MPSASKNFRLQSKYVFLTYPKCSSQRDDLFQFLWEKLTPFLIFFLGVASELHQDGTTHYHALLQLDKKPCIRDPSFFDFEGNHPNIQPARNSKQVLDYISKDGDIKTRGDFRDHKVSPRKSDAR
Description: as §1

[5] = tested on: T5, Rep nickase domain of faba bean necrotic yellows virus
T5 sequence (residues 1-98, tag not shown): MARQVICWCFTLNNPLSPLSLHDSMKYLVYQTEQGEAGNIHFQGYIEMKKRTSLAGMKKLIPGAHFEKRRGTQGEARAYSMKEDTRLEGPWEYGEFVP
Description: as §1

[6] = tested on: T6, Rep nickase domain of maize striate mosaic virus
T6 sequence (residues 1-117, tag not shown): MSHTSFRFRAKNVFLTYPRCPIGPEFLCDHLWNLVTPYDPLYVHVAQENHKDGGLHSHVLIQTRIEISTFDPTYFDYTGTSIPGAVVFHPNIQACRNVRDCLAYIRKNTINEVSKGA
Description: as §1

[7] = tested on: T7, Rep nickase domain of porcine circovirus 2
T7 sequence (residues 2-116, tag not shown): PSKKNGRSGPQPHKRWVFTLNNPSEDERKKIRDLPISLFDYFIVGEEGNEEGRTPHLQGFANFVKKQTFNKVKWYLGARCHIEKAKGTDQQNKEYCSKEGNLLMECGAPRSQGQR
Description: as §1

[8] = tested on: T8, Rep nickase domain of tomato yellow leaf curl virus
T8 sequence (residues 1-136, tag not shown): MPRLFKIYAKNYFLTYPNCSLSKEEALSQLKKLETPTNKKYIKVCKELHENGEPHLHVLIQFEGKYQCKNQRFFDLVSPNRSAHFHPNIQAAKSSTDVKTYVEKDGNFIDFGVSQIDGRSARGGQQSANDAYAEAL
Description: as §1

[9] = tested on: T9, Rep nickase domain of wheat dwarf virus
T9 sequence (residues 1-137, tag not shown): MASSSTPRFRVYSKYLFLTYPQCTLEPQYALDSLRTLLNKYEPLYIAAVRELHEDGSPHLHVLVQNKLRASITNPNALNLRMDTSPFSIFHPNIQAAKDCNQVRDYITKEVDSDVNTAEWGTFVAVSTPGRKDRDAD
Description: as §1

Sequence	uncleaved DNA left (log2) [1]	uncleaved DNA left (log2) [2]	uncleaved DNA left (log2) [3]	uncleaved DNA left (log2) [4]	uncleaved DNA left (log2) [5]	uncleaved DNA left (log2) [6]	uncleaved DNA left (log2) [7]	uncleaved DNA left (log2) [8]	uncleaved DNA left (log2) [9]
GCATGAT	-0.278	-0.0263	-0.046	0.197	0.099	0.187	-0.92	0.0513	0.0604
CATCCGA	-0.168	-0.0991	-0.23	-0.166	-0.101	-0.948	0.063	-0.0126	-0.0957
CATTGAC	0.0803	0.0517	-0.599	-0.355	0.00419	-0.954	0.186	0.141	0.0931
TCTTCTC	-0.149	-0.143	0.0106	-0.234	0.012	-0.467	-0.172	0.00963	-0.037
GCGCGTA	-0.106	-0.0448	-0.194	-0.322	-0.0339	-0.363	0.00161	-0.107	-0.109
GTCTATT	-2.39	-0.285	0.164	0.238	0.0352	1.65	-2.81	0.0453	-0.0731
CCAATAC	0.0364	0.137	-0.0548	-0.667	0.0286	-0.777	0.126	0.0632	0.0309
TATTTGT	-3.43	-3.29	-0.601	-1.82	-0.0799	-1.02	-3.37	-0.0822	-0.202
TCGTCAA	-0.0534	-0.138	0.0578	-0.0693	-0.0962	-0.342	-0.197	-0.0869	-0.0675
CTCTTGA	-0.0873	-0.0278	-0.331	-0.41	0.0509	-0.987	-0.0351	0.0193	-0.0284
CGTAGCA	0.0142	0.0305	0.3	0.83	-0.118	0.625	-0.178	-0.0381	0.0681
CGTACGG	0.01	0.0133	0.228	0.889	-0.0765	1.73	0.119	-0.0539	0.0565
CCTATAG	0.029	0.0283	-0.767	-0.453	-0.0245	-1.1	0.118	-0.00574	-0.0647
ATACGAG	-0.0453	0.0468	-0.148	0.275	0.0548	-0.781	0.0266	-0.0893	-0.0647
GATTTCC	-0.147	-0.00666	0.315	0.621	-0.0134	1.14	-0.0537	-0.0128	0.0315
CGTATTG	-0.0505	-0.0632	-0.264	0.262	-0.11	0.365	-0.0896	-0.0987	-0.0628
ACTCGGA	-0.0135	-0.054	-0.148	0.0681	-0.0449	-0.435	-0.0836	-0.095	-0.0898
GTTAAGA	-0.109	0.0938	0.265	0.73	-0.046	1.46	0.118	-0.0203	0.0467
TATCCAG	0.115	0.119	-0.562	-0.568	0.0923	-1.06	0.124	0.0986	-0.00978
CTAGAGC	-0.0785	0.0699	-0.314	-0.165	-0.00651	-0.888	0.107	0.125	-0.0668
AAACCTC	0.0709	0.0636	0.117	-0.32	0.112	0.394	-0.209	0.087	0.0308
ACTACCA	-0.0795	-0.0386	-0.115	-1.14	-0.04	-0.324	-0.286	-0.18	-0.0471
TTTGCCT	0.0835	-0.0741	-0.516	-1.91	0.0273	-1.18	-0.0812	-0.0118	-0.103
CTTCCTT	-0.0305	0.0163	-0.0816	-2.3	-0.0478	-0.695	-0.549	0.028	-0.0427
GCCGATG	-0.101	-0.0984	0.0131	0.534	-0.0623	0.395	0.238	-0.154	-0.174
TTTAAAT	0.0402	0.144	0.117	-0.397	0.00243	-0.0665	-0.715	0.141	0.0443
GTACCCC	0.0308	0.138	0.406	0.725	0.0579	1.42	-0.201	0.109	0.03
TGTTATA	0.0616	0.041	0.29	-0.21	0.093	0.951	-0.0329	0.0497	0.118
